Where “and” joins values, the source holds several entries; their conditions need not be identical. Equal values may be shown once. Inconclusive means that the source gave no clear call. Such entries were picked first, then a sample of the others. Potencies beside an inconclusive call are fits to weak or partial responses and may not hold up. Calls of active or inactive are those of the source. Calls follow the shape of the dose curve; as a rule, active = well fitted cell-killing curve with a large enough effect in the repeat runs; inconclusive = weak or mixed curves, or effect the other way; inactive = no such curve, though single readings can be large or run the other way.
Experiment: qHTS assay to identify small molecule antagonists of the thyroid receptor (TR) signaling pathway - cell viability counter screen (AID 743064); also: nearly all actives have a fitted effect of over 50% in size
Settings: GH3.TRE-Luc viability, CellTiter-Fluor, 24 h; activity change, negative = cytotoxic: at 70.3 µM (top of the series) unless noted
From the text: National Center for Advancing Translational Sciences [NCATS]
NIH Chemical Genomics Center [NCGC]
U.S. Environmental Protection Agency [EPA]
National Institutes of Environmental Health Sciences [NIEHS]
National Toxicology Program [NTP]
U.S. Food and Drug Administration [FDA]
Thyroid receptor (TR), a nuclear hormone receptor, plays an important role in development, proliferation, differentiation, metabolism, brain function, and cardiovascular system. […] To profile the Tox21 10K compound library in TR signaling, a cell-based GH3-TRE-Luc assay (GH3.TRE-Luc cell line, developed by the laboratory of Dr. Albertinka J. Murk, Wageningen University) was used to measure the inhibition of TR. GH3 (rat pituitary tumor) cells stably expressing a TR activity sensor consisting of two TR response elements and a luciferase reporter gene. The cytotoxicity of the Tox21 compound library against the GH3.TRE-Luc cell line was tested in parallel by measuring the cell viability using CellTiter-Fluor assay (Promega, Madison, WI) in the same wells.
Tox21 Assay Protocol Summary:
GH3.TRE-Luc cells were dispensed at 1500 cells/4 uL/well into 1536-well white solid bottom plates using a Multidrop Combi dispenser (Thermo Fisher Scientific Inc., Waltham, MA). After the assay plates were incubated at 37 C for 4 hours, 23 nL of library compound or DMSO controls was transferred to the assay plates by a pintool station (Kalypsys, San Diego, CA), followed by addition of 1 ul of T3 (1 nM, final concentration in the wells) to stimulate TR transactivation. The assay plates were incubated at 37 C for 23.5 h, and then 1 uL of CellTiter-Fluor reagent (Promega, Madision, WI) of measuring cytotoxicity was added to each well using a Bioraptr Flying Reagent Dispenser (FRD) workstation (Beckman Coulter, Indianapolis, IN, USA). The plates were incubated at 37C and 5% CO2 for additional 30 min, and fluorescence intensity was measured by a ViewLux plate reader (PerkinElmer, Shelton, CT).
% is scaled to controls: 0 for no effect and ±100 for the full control effect; potency is read from the fitted curve at half-maximal effect; tags tell the direction and shape of the fitted curve.

| SMILES | Potency | activity change, negative = cytotoxic |
| --- | --- | --- |
| O=C1CN=C(c2ccccc2)c2cc(Cl)ccc2N1CC1CC1 | inconclusive: 45.4 µM [cytotoxic, partial curve] |  |
| CCCCCCCCCCCCCN1CC(C)OC(C)C1 (stereo not given) |  | inactive: -2.76% |
| O=C(NC(=O)c1c(F)cccc1F)Nc1ccc(OC(F)(F)C(F)OC(F)(F)F)c(Cl)c1 (stereo not given) |  | inactive: 21.4% |
| COP(=S)(OC)Oc1nc(Cl)c(Cl)cc1Cl | inconclusive: 0.0968 µM [rising, full curve, poor fit] |  |
| CCN(CC)C(=O)N[C@@H]1C=C2c3cccc4[nH]cc(c34)C[C@@H]2N(C)C1 | inconclusive: 33.5 µM [cytotoxic, single point] |  |
| CSc1nc(NC(C)C)nc(NC(C)C)n1 | inconclusive: 27.2 µM [rising, single point] |  |
| O=[N+]([O-])c1ccccc1CCl |  | inactive: -1.52% [at 95 µM] |
| Clc1ccc(Cl)cc1 | inconclusive: 68.5 µM [rising, partial curve, poor fit] |  |
| CC1CCC(=O)O1 (stereo not given) |  | inactive: 2.53% |
| CC(C)(C)N(NC(=O)c1ccc(Cl)cc1)C(=O)c1ccccc1 | active: 3.42 µM |  |
| Cc1cc(C)nc(Nc2ccccc2)n1 | inconclusive: 86.3 µM [rising, single point] |  |
| COc1cccc(C(=O)NN(C(=O)c2cc(C)cc(C)c2)C(C)(C)C)c1C | inconclusive: 12.2 µM [cytotoxic, partial curve] |  |
| O=[N+]([O-])c1cc(C(F)(F)F)cc([N+](=O)[O-])c1Cl | active: 61.4 µM |  |
| O=S(=O)(O)C(F)(F)C(F)(F)C(F)(F)C(F)(F)F | inconclusive: 25.8 µM [rising, partial curve] |  |
| O=C(OC1CCCCC1)c1ccccc1C(=O)OC1CCCCC1 | inconclusive: 72.3 µM [cytotoxic, single point] |  |
| CCCCN(N=O)C(=N)N[N+](=O)[O-] | active: 62.4 µM |  |
| COc1cc(C=O)cc2c1[C@H](COC(N)=O)[C@]1(OC(C)=O)ON2C[C@H]2[C@@H]1N2C(C)=O | active: 0.864 µM |  |
| CC(C)Nc1ccc(Nc2ccccc2)cc1 | inconclusive: 30.5 µM [cytotoxic, partial curve, poor fit] |  |
| c1ccc2c(c1)Nc1ccccc1S2 | inconclusive: 31.8 µM |  |
| ClCCOCCCl |  | inconclusive: 32.3% [at 95 µM] |

| SMILES | Potency | activity change, negative = cytotoxic |
| --- | --- | --- |
| CCOP(=S)(NC(C)C)Oc1ccccc1C(=O)OC(C)C (stereo not given) | inconclusive: 68.6 µM [cytotoxic, single point] |  |
| CCOP(=O)(OCC)SCCSCC | inconclusive: 65.5 µM [rising, partial curve, poor fit] |  |
| Nc1ccccc1Cl | inconclusive: 1.18 µM [rising, single point] |  |
| CCCCCc1cc(O)cc(O)c1 | inconclusive: 68.6 µM [cytotoxic, single point] |  |
| CC/C(=N\OC/C=C/Cl)C1=C(O)CC(C2CCOCC2)CC1=O (stereo not given) |  | inactive: 15% |
| CSC(=O)c1c(C(F)F)nc(C(F)(F)F)c(C(=O)SC)c1CC(C)C | active: 54.2 µM |  |
| O=C(O)c1ccccc1O | inconclusive: 26.8 µM [rising, single point] |  |
| N#CNC#N | inconclusive: 77.8 µM [cytotoxic, partial curve, poor fit] |  |
| CCOC(=O)OC1=C(c2cc(C)ccc2C)C(=O)NC12CCC(OC)CC2 (stereo not given) | inconclusive: 76.9 µM [cytotoxic, single point] |  |
| CCN(CC)c1nc(C)cc(OP(=S)(OC)OC)n1 | inconclusive: 61.1 µM [cytotoxic, single point] |  |
| C=CC(C)(CCC=C(C)C)OC(=O)c1ccccc1N (stereo not given) | inconclusive: 43.5 µM [rising, single point] |  |
| CCCCn1cc[n+](C)c1 | inconclusive: 27.3 µM [rising, single point] |  |
| O=[N+]([O-])[O-].[Tl+] | inconclusive: 69.1 µM [cytotoxic] |  |
| CCOCCOC(C)=O | inconclusive: 5.45 µM [rising, full curve, poor fit] |  |
| O=C(O)c1nn(Cc2ccc(Cl)cc2Cl)c2ccccc12 | inconclusive: 0.188 µM [rising, full curve, poor fit] |  |
| O=S(=O)(O)C(F)(F)C(F)(F)C(F)(F)C(F)(F)C(F)(F)C(F)(F)C(F)(F)C(F)(F)F | inconclusive: 65.3 µM [cytotoxic] and inconclusive: 68.6 µM [cytotoxic, single point] |  |
| COC(=O)Nc1cccc(OC(=O)Nc2cccc(C)c2)c1 | inconclusive: 6.86 µM [rising, single point] |  |
| O=[N+]([O-])c1cccc2cccnc12 |  | inactive: -1.71% [at 95 µM] |
| O=C1NCN(c2ccccc2)C12CCN(CC1COc3ccccc3O1)CC2 (stereo not given) | inconclusive: 33.5 µM [cytotoxic, single point] |  |
| Cc1c([N+](=O)[O-])cc2c(c1[N+](=O)[O-])C(C)(C)CC2(C)C | inconclusive: 68.6 µM [cytotoxic, single point] |  |

— PubChem BioAssay (Tox21)
